# Test results published in the supplement of paper PMC8728848.
# This is one part of the list.
# Tests used:
# Assay in all cases: glycan array binding signal (z-score within array); higher = stronger binding
# Conditions in all cases: glycan notation: IUPAC condensed, linker removed
# [1] = target: Neu5Ac(a2-3)Gal(b1-3)GalNAc
# Procedure, shortened: (§1)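 The binding signal is a Z-score computed within each array and averaged over linkers. Arrays of the same protein sequence at different concentrations or buffers were also averaged together. Data originate from 3228 arrays in the Consortium for Functional Glycomics database, kept only where the protein sequence was available.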
# [2] = target: Neu5Ac(a2-3)Gal(b1-3)GalNAc(b1-3)Gal(a1-4)Gal(b1-4)Glc
# Procedure, shortened: as §1
# [3] = target: Neu5Ac(a2-3)Gal(b1-3)GalNAc(b1-4)[Neu5Ac(a2-3)]Gal(b1-4)Glc
# Procedure, shortened: as §1
# [4] = target: Neu5Ac(a2-3)Gal(b1-3)GalNAc(b1-4)[Neu5Ac(a2-8)Neu5Ac(a2-3)]Gal(b1-4)Glc
# Procedure, shortened: as §1
# [5] = target: Neu5Ac(a2-3)Gal(b1-3)GalNAc6S
# Procedure, shortened: as §1
# [6] = target: Neu5Ac(a2-3)Gal(b1-3)GlcNAc
# Procedure, shortened: as §1
# [7] = target: Neu5Ac(a2-3)Gal(b1-3)GlcNAc(b1-2)Man
# Procedure, shortened: as §1
# [8] = target: Neu5Ac(a2-3)Gal(b1-3)GlcNAc(b1-2)Man(a1-3)[GlcNAc(b1-4)][Neu5Ac(a2-3)Gal(b1-3)GlcNAc(b1-2)Man(a1-6)]Man(b1-4)GlcNAc(b1-4)GlcNAc
# Procedure, shortened: as §1
# [9] = target: Neu5Ac(a2-3)Gal(b1-3)GlcNAc(b1-2)Man(a1-3)[Neu5Ac(a2-3)Gal(b1-3)GlcNAc(b1-2)Man(a1-6)]Man(b1-4)GlcNAc(b1-4)GlcNAc
# Procedure, shortened: as §1
# [10] = target: Neu5Ac(a2-3)Gal(b1-3)GlcNAc(b1-3)Gal(b1-3)GlcNAc
# Procedure, shortened: as §1
# [11] = target: Neu5Ac(a2-3)Gal(b1-3)GlcNAc(b1-3)Gal(b1-4)GlcNAc
# Procedure, shortened: as §1
# [12] = target: Neu5Ac(a2-3)Gal(b1-3)GlcNAc(b1-3)GalNAc
# Procedure, shortened: as §1
# [13] = target: Neu5Ac(a2-3)Gal(b1-3)GlcNAc(b1-4)Gal(b1-4)Glc
# Procedure, shortened: as §1
# [14] = target: Neu5Ac(a2-3)Gal(b1-3)GlcNAc(b1-6)GalNAc
# Procedure, shortened: as §1
# [15] = target: Neu5Ac(a2-3)Gal(b1-3)GlcNAc6S
# Procedure, shortened: as §1
# [16] = target: Neu5Ac(a2-3)Gal(b1-3)[Fuc(a1-4)]GlcNAc
# Procedure, shortened: as §1
# [17] = target: Neu5Ac(a2-3)Gal(b1-3)[Fuc(a1-4)]GlcNAc(b1-3)Gal(b1-3)[Fuc(a1-4)]GlcNAc
# Procedure, shortened: as §1
# [18] = target: Neu5Ac(a2-3)Gal(b1-3)[Fuc(a1-4)]GlcNAc(b1-3)Gal(b1-4)[Fuc(a1-3)]GlcNAc
# Procedure, shortened: as §1
# [19] = target: Neu5Ac(a2-3)Gal(b1-3)[GlcNAc(b1-6)]GalNAc
# Procedure, shortened: as §1
# [20] = target: Neu5Ac(a2-3)Gal(b1-3)[Neu5Ac(a2-6)]GalNAc
# Procedure, shortened: as §1
# [21] = target: Neu5Ac(a2-3)Gal(b1-3)[Neu5Ac(a2-6)]GlcNAc(b1-3)[Fuc(a1-3)[Gal(b1-4)]GlcNAc(b1-6)]Gal(b1-4)Glc
# Procedure, shortened: as §1
# [22] = target: Neu5Ac(a2-3)Gal(b1-3)]Neu5Ac(a2-3)Gal(b1-4)]GlcNAc
# Procedure, shortened: as §1
# Neu5Ac(a2-3)Gal(b1-4)Glc = target: Neu5Ac(a2-3)Gal(b1-4)Glc
# Procedure, shortened: as §1
# [23] = target: Neu5Ac(a2-3)Gal(b1-4)GlcNAc
# Procedure, shortened: as §1
# [24] = target: Neu5Ac(a2-3)Gal(b1-4)GlcNAc(b1-2)Man
# Procedure, shortened: as §1
# [25] = target: Neu5Ac(a2-3)Gal(b1-4)GlcNAc(b1-2)Man(a1-3)[GlcNAc(b1-4)][Neu5Ac(a2-3)Gal(b1-4)GlcNAc(b1-2)Man(a1-6)]Man(b1-4)GlcNAc(b1-4)GlcNAc
# Procedure, shortened: as §1
# [26] = target: Neu5Ac(a2-3)Gal(b1-4)GlcNAc(b1-2)Man(a1-3)[Neu5Ac(a2-3)Gal(b1-4)GlcNAc(b1-2)Man(a1-6)]Man(b1-4)GlcNAc(b1-4)GlcNAc
# Procedure, shortened: as §1
# [27] = target: Neu5Ac(a2-3)Gal(b1-4)GlcNAc(b1-2)Man(a1-3)[Neu5Ac(a2-3)Gal(b1-4)GlcNAc(b1-2)Man(a1-6)]Man(b1-4)GlcNAc(b1-4)[Fuc(a1-6)]GlcNAc
# Procedure, shortened: as §1
# [28] = target: Neu5Ac(a2-3)Gal(b1-4)GlcNAc(b1-2)Man(a1-3)[Neu5Ac(a2-6)Gal(b1-4)GlcNAc(b1-2)Man(a1-6)]Man(b1-4)GlcNAc(b1-4)GlcNAc
# Procedure, shortened: as §1
# [29] = target: Neu5Ac(a2-3)Gal(b1-4)GlcNAc(b1-2)[Neu5Ac(a2-3)Gal(b1-4)GlcNAc(b1-4)]Man(a1-3)[GlcNAc(b1-4)][Neu5Ac(a2-3)Gal(b1-4)GlcNAc(b1-2)[Neu5Ac(a2-3)Gal(b1-4)GlcNAc(b1-6)]Man(a1-6)]Man(b1-4)GlcNAc(b1-4)GlcNAc
# Procedure, shortened: as §1
# [30] = target: Neu5Ac(a2-3)Gal(b1-4)GlcNAc(b1-2)[Neu5Ac(a2-3)Gal(b1-4)GlcNAc(b1-4)]Man(a1-3)[GlcNAc(b1-4)][Neu5Ac(a2-3)Gal(b1-4)GlcNAc(b1-4)Man(a1-6)]Man(b1-4)GlcNAc(b1-4)GlcNAc
# Procedure, shortened: as §1
# [31] = target: Neu5Ac(a2-3)Gal(b1-4)GlcNAc(b1-2)[Neu5Ac(a2-3)Gal(b1-4)GlcNAc(b1-6)]Man(a1-6)[Neu5Ac(a2-3)Gal(b1-4)GlcNAc(b1-2)Man(a1-3)]Man(b1-4)GlcNAc(b1-4)GlcNAc
# Procedure, shortened: as §1
# [32] = target: Neu5Ac(a2-3)Gal(b1-4)GlcNAc(b1-2)[Neu5Ac(a2-3)Gal(b1-4)GlcNAc(b1-6)]Man(a1-6)[Neu5Ac(a2-3)Gal(b1-4)GlcNAc(b1-2)Man(a1-3)][GlcNAc(b1-4)]Man(b1-4)GlcNAc(b1-4)GlcNAc
# Procedure, shortened: as §1
# [33] = target: Neu5Ac(a2-3)Gal(b1-4)GlcNAc(b1-3)Gal
# Procedure, shortened: as §1
# [34] = target: Neu5Ac(a2-3)Gal(b1-4)GlcNAc(b1-3)Gal(b1-3)GlcNAc
# Procedure, shortened: as §1
# [35] = target: Neu5Ac(a2-3)Gal(b1-4)GlcNAc(b1-3)Gal(b1-4)GlcNAc
# Procedure, shortened: as §1
# [36] = target: Neu5Ac(a2-3)Gal(b1-4)GlcNAc(b1-3)Gal(b1-4)GlcNAc(b1-2)Man(a1-3)[Neu5Ac(a2-3)Gal(b1-4)GlcNAc(b1-3)Gal(b1-4)GlcNAc(b1-2)Man(a1-6)]Man(b1-4)GlcNAc(b1-4)GlcNAc
# Procedure, shortened: as §1
# [37] = target: Neu5Ac(a2-3)Gal(b1-4)GlcNAc(b1-3)Gal(b1-4)GlcNAc(b1-3)Gal(b1-4)GlcNAc
# Procedure, shortened: as §1
# [38] = target: Neu5Ac(a2-3)Gal(b1-4)GlcNAc(b1-3)Gal(b1-4)GlcNAc(b1-3)Gal(b1-4)GlcNAc(b1-2)Man(a1-3)[Neu5Ac(a2-3)Gal(b1-4)GlcNAc(b1-3)Gal(b1-4)GlcNAc(b1-3)Gal(b1-4)GlcNAc(b1-2)Man(a1-6)]GalNAc
# Procedure, shortened: as §1
# [39] = target: Neu5Ac(a2-3)Gal(b1-4)GlcNAc(b1-3)Gal(b1-4)GlcNAc(b1-3)GalNAc
# Procedure, shortened: as §1
# [40] = target: Neu5Ac(a2-3)Gal(b1-4)GlcNAc(b1-3)Gal(b1-4)GlcNAc(b1-3)[Neu5Ac(a2-3)Gal(b1-4)GlcNAc(b1-3)Gal(b1-4)GlcNAc(b1-6)]GalNAc
# Procedure, shortened: as §1
# [41] = target: Neu5Ac(a2-3)Gal(b1-4)GlcNAc(b1-3)Gal(b1-4)GlcNAc(b1-6)[Gal(b1-3)]GalNAc
# Procedure, shortened: as §1
# [42] = target: Neu5Ac(a2-3)Gal(b1-4)GlcNAc(b1-3)Gal(b1-4)[Fuc(a1-3)]GlcNAc
# Procedure, shortened: as §1
# [43] = target: Neu5Ac(a2-3)Gal(b1-4)GlcNAc(b1-3)GalNAc
# Procedure, shortened: as §1
# [44] = target: Neu5Ac(a2-3)Gal(b1-4)GlcNAc(b1-3)[Neu5Ac(a2-3)Gal(b1-4)GlcNAc(b1-6)]GalNAc
# Procedure, shortened: as §1
binder,measurement,setting,value
PX14375C-bth-509-28-509 (Bacteroides thetaiotaomicron) (protein) RSPQGQFTEDDNPNALVNGKIYNVYTMMRSFDITAGTPAIAIHYLRSEDSEKGSIPSDGSDVAEMYDDFLYTPTNGLLGSYWGKNYAIIYQCNDILDAIAEKETAGQTETEDIINKGEASFFRAYCYFNLVRAFGEVPLVTYKINDASEANIPKTTADKIYEQIDTDLKTAEESLPETWSTEYTGRLTWGAARSLHARTYMMRSDWDNMYKASTDVINKGLYNLKTPYNEIFTDDGENSGGSIFELQCTATAALPQSDVIGSQFCEVQGVRGAGQWDLGWGWHMATQLMADAYETGDPRKNATLLYFRKTDDEPITPENTNEPYGESPISPAMGAYFNKKAYTDPALRKEYTNKGFWVNIRLIRYSDVVLMAAEAANEKNIPGEAVDYLEMVRARARGTNTNILPKITTNDQGELREAIRHERRVELGLEPDRFYDLVRWGIASEVLHAAGKVNYQDKNALLPLPQSEIDKSKGVLVQNPDY,glycan array binding signal (z-score),[1],-0.245
same,glycan array binding signal (z-score),[2],-0.11
same,glycan array binding signal (z-score),[3],-0.334
same,glycan array binding signal (z-score),[4],-0.021
same,glycan array binding signal (z-score),[5],-0.304
same,glycan array binding signal (z-score),[6],-0.476
same,glycan array binding signal (z-score),[7],-0.329
same,glycan array binding signal (z-score),[8],-0.466
same,glycan array binding signal (z-score),[9],-0.139
same,glycan array binding signal (z-score),[10],-0.422
same,glycan array binding signal (z-score),[11],-0.27
same,glycan array binding signal (z-score),[12],-0.301
same,glycan array binding signal (z-score),[13],-0.469
same,glycan array binding signal (z-score),[14],3.9
same,glycan array binding signal (z-score),[15],-0.357
same,glycan array binding signal (z-score),[16],-0.072
same,glycan array binding signal (z-score),[17],-0.124
same,glycan array binding signal (z-score),[18],-0.251
same,glycan array binding signal (z-score),[19],0.002
same,glycan array binding signal (z-score),[20],-0.13
same,glycan array binding signal (z-score),[21],-0.354
same,glycan array binding signal (z-score),[22],0.356
same,glycan array binding signal (z-score),Neu5Ac(a2-3)Gal(b1-4)Glc,-0.185
same,glycan array binding signal (z-score),[23],-0.404
same,glycan array binding signal (z-score),[24],-0.247
same,glycan array binding signal (z-score),[25],-0.41
same,glycan array binding signal (z-score),[26],-0.196
same,glycan array binding signal (z-score),[27],-0.381
same,glycan array binding signal (z-score),[28],-0.125
same,glycan array binding signal (z-score),[29],-0.215
same,glycan array binding signal (z-score),[30],-0.258
same,glycan array binding signal (z-score),[31],0.442
same,glycan array binding signal (z-score),[32],-0.181
same,glycan array binding signal (z-score),[33],-0.186
same,glycan array binding signal (z-score),[34],-0.468
same,glycan array binding signal (z-score),[35],-0.222
same,glycan array binding signal (z-score),[36],0.037
same,glycan array binding signal (z-score),[37],-0.503
same,glycan array binding signal (z-score),[38],5.44
same,glycan array binding signal (z-score),[39],-0.201
same,glycan array binding signal (z-score),[40],-0.04
same,glycan array binding signal (z-score),[41],-0.22
same,glycan array binding signal (z-score),[42],-0.367
same,glycan array binding signal (z-score),[43],-0.438
same,glycan array binding signal (z-score),[44],0.019
